In PubChem BioAssay AID2202238 (Ras Initiative Chemistry Research Team, Frederick National …, 2025):
Some of the results follow. Shown are side measurements of this screen, not its main read-out; they come without a call.

Target: GTPase KRas (Homo sapiens) (UniProt P01116)
Test: Cysteine mutants labelled by reactive fragments (mass read-out) (AID 2202238)
Set-up: protein at 5 µM with 500 µM competing thiol for 1.5 h
Details: KRAS G12D cysteine mutants, disulfide tethering, MALDI-TOF labeling, stronger effect = higher value, fragment at 500 µM
[1] = measured here: G60C mutant labeling
[2] = measured here: G75C mutant labeling
[3] = measured here: H94C mutant labeling
[4] = measured here: I36C mutant labeling
[5] = measured here: L120C mutant labeling
[6] = measured here: M67C mutant labeling
[7] = measured here: M72C mutant labeling
[8] = measured here: N26C mutant labeling
[9] = measured here: N86C mutant labeling
[10] = measured here: P121C mutant labeling
[11] = measured here: S122C mutant labeling
[12] = measured here: S136C mutant labeling

Chain of UniProt P01116 (P01116 whole entry, looked up, the tested form may be a part): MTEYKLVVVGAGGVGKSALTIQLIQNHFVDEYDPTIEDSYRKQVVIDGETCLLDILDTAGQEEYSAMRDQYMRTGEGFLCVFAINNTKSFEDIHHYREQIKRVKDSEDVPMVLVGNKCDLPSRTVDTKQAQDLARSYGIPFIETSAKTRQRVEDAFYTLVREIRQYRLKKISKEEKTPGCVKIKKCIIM

SMILES | percent labeling [1] | percent labeling [2] | percent labeling [3] | percent labeling [4] | percent labeling [5] | percent labeling [6] | percent labeling [7] | percent labeling [8] | percent labeling [9] | percent labeling [10] | percent labeling [11] | percent labeling [12]
O=C(NCCS)C1CC(O)(c2cccc(Cl)c2)C1 (stereo not drawn) | 45.7% | 19.7% | 29.9% | 28.6% | 38.2% | 32.6% | 44.2% | 47.1% | 28.6% | 44.1% | 29.5% | 49.6%
Cn1cc(C(=O)NCCS)c(-c2ccc3c(c2)OCCCO3)n1 | 41.4% | 22.2% | 39% | 24.5% | 55.2% | 37.4% | 42.1% | 36.8% | 17% | 27.3% | 25.2% | 41.6%
Cc1cc(Br)cc2cc(C(=O)NCCS)oc12 | 22.8% | 13.1% | 16.6% | 10% | 11.4% | 9.7% | 36.4% | 27.5% | 12.7% | 13.6% | 6% | 15%
O=C(Cc1csc(N2CCCC2=O)n1)NCCS | 46% | 13.8% | 37.4% | 28.5% | 49.4% | 35.5% | 23.9% | 41.7% | 24.7% | 33.4% | 33.2% | 42.2%
O=C(CCS)N1CCC(c2ncc(-c3ccc(F)c(F)c3)[nH]2)CC1 |  | 18.4% | 24.2% | 23.3% | 17.1% | 34.1% | 22.2% |  | 23.2% | 17.7% | 8.5% | 28.8%
COc1ccc2nc(C)c(C(=O)NCCS)n2n1 | 37.7% | 31.4% | 50.2% | 20.3% | 27.7% | 47.6% | 58% | 43.1% | 18.2% | 24.3% | 23.5% | 43.8%
O=C(CCS)Nc1ccc(-c2n[nH]c3c2COCC3)cc1 |  | 7.6% | 20.9% | 31.1% | 14.8% | 18.4% | 42.5% |  | 17% | 14% | 13% | 29.5%
O=C(NCCS)C1CCN(S(=O)(=O)c2ccc3[nH]c(=O)sc3c2)CC1 | 33.3% | 14.5% | 17.4% | 19.9% | 17.1% | 18.9% | 30.8% | 38.6% | 16.1% | 20.5% | 18.2% | 23.3%
O=C(NCCS)c1ccnc2cc(Cl)ccc12 | 33.2% | 15.4% | 15.5% | 12.7% | 13.1% | 16.9% | 43.6% | 38.2% | 11.7% | 19.1% | 10.7% | 23.7%
O=C(CCS)N(CC(F)F)C1CCCCC1 |  | 29.4% | 28.1% | 25% | 19% | 20.5% | 47% |  | 22.8% | 22.9% | 24.1% | 43.1%
CN(C(=O)c1cccc(C(=O)NCCS)c1)c1ccccc1 | 39.5% | 20.1% | 32.8% | 26.3% | 34.5% | 38.9% | 47.1% | 33.5% | 21.7% | 25.1% | 23.9% | 64.5%
O=C(NCCS)C1(c2cc(F)cc(Br)c2)CC1 | 35% | 17.7% | 20.7% | 16.6% | 19% | 17.2% | 35.6% | 26.3% | 11.7% | 16.3% | 10.9% | 23.9%
CN(C)c1ccc2cc(C(=O)NCCS)ccc2c1 | 18.6% | 8.4% | 10.3% | 11.9% | 16.9% | 7.6% | 59.7% | 26.3% | 3.5% | 10.3% | 7.8% | 15.3%
CCC(C)c1nc(C)c(CC(=O)NCCS)c(C)n1 (stereo not drawn) | 31.2% | 13.3% | 32.7% | 26.3% | 37.4% | 30.9% | 19.5% | 33.9% | 23.3% | 33.5% | 28.9% | 43.6%
O=C(CCc1nc(-c2ccc(Br)cc2)no1)NCCS | 26.7% | 6.3% | 14.2% | 7.6% | 10.3% | 8.6% | 15.1% | 30.7% | 4.6% | 7% | 4.1% | 7.5%
O=C(CCS)NCc1cn(-c2ccccc2)nc1-c1ccc(F)cc1 |  | 6.4% | 11.8% | 10.3% | 6.9% | 7.5% | 41.4% |  | 11.1% | 5.9% | 4.8% | 14.6%
O=C(CCS)NC1CCC(c2nc3ccccc3[nH]2)CC1 (stereo not drawn) |  | 17.2% | 43.3% | 49.4% | 29.9% | 46.2% | 26.4% |  | 33.3% | 38.7% | 34.8% | 63.2%
COc1ccccc1C(=O)NCCS | 68.6% | 38.5% | 63.1% | 33.8% | 52.3% | 49.3% | 75.7% | 50.5% | 68.2% | 38.6% | 44.5% | 58.5%
Cc1cccc(-c2csc(NC(=O)CCS)n2)c1 |  | 15% | 21% | 18% | 15% | 11.7% | 34.8% |  | 12.5% | 20.8% | 10% | 35.2%
O=C(CCS)N1CCC(Nc2ccncc2)CC1 |  | 14.3% | 30.6% | 48.7% | 35.5% | 51.5% | 22.6% |  | 20% | 27% | 34.4% | 58.9%
O=C(NCCS)c1cc(-c2ccccc2F)no1 | 12.9% | 11.8% | 7.1% | 6.6% | 14.2% | 7.8% | 35% | 18.9% | 7.6% | 9.2% | 7.5% | 9.9%
O=C(CCS)Nc1ccc(OC2CCCC2)nc1 |  | 14% | 17.7% | 16.2% | 14% | 12.9% | 43.9% |  | 15.7% | 18.2% | 15.3% | 32.6%
O=C(CCS)Nc1cn(-c2ccccc2)nn1 |  | 9.8% | 14.4% | 24.9% | 12.7% | 13.6% | 57.7% |  | 23.5% | 17.5% | 12.9% | 32.2%

SMILES | percent labeling [1] | percent labeling [2] | percent labeling [3] | percent labeling [4] | percent labeling [5] | percent labeling [6] | percent labeling [7] | percent labeling [8] | percent labeling [9] | percent labeling [10] | percent labeling [11] | percent labeling [12]
O=C(CCS)NCc1cccnc1-n1cccn1 |  | 12.3% | 34.2% | 42.3% | 34.2% | 36.2% | 24.4% |  | 33.6% | 38.4% | 40.4% | 66.9%
COc1ccc(CN2CCN(C(=O)CCS)CC2)cc1F |  | 21.8% | 34.7% | 44.2% | 31.3% | 44.4% | 33.9% |  | 27.8% | 38.3% | 37% | 53.9%
CC(C)(Cc1c[nH]c2cc(F)ccc12)NC(=O)CCS |  | 14.4% | 25.4% | 24.9% | 20.6% | 34% | 48.8% |  | 19% | 19.8% | 15.5% | 36.6%
Cc1cn2cc(CC(=O)NCCS)nc2s1 | 41.3% | 19.3% | 26.9% | 23.4% | 51.5% | 29.7% | 30.7% | 41.2% | 24.5% | 28.5% | 26% | 40.3%
O=C(CCS)NCC1CN(c2ccccc2)C(=O)O1 (stereo not drawn) |  | 14.6% | 32.7% | 44.4% | 34.4% | 49.8% | 39% |  | 25.8% | 47.3% | 35.3% | 54.3%
O=C(NC1CCN(C(=O)CCS)CC1)c1ccccc1 |  | 11.8% | 34.1% | 45.4% | 34.6% | 42.4% | 34.3% |  | 35.8% | 42.7% | 38% | 57.6%
Cc1cn(-c2cccnc2)nc1NC(=O)CCS |  | 15.3% | 27.3% | 33.4% | 32.1% | 29.1% | 25.9% |  | 17.3% | 18.2% | 27% | 46.4%
CCOc1ccccc1-c1cc(C(=O)NCCS)[nH]n1 | 19.9% | 11.3% | 18.1% | 10.8% | 24.6% | 11.9% | 53.6% | 30.5% | 11.8% | 19% | 12.2% | 21.5%
CCOC(=O)c1nnc(C2CCN(C(=O)CCS)CC2)s1 |  | 10.3% | 24.8% | 30.4% | 19.4% | 31.8% | 18.8% |  | 19.3% | 23.2% | 25.4% | 40.6%
CC(NC(=O)CCS)C1(n2ccnn2)CC1 (stereo not drawn) |  | 0% | 31.2% | 35.7% | 26.8% | 30.7% | 11.4% |  | 29.2% | 36.2% | 35% | 40.9%
O=C(CCS)N1CC2CCCS(=O)(=O)C2(C(F)(F)F)C1 (stereo not drawn) |  | 8.1% | 38.7% | 28.2% | 30.5% | 37.1% | 17.2% |  | 18.3% | 30.6% | 31.4% | 41.6%
Cc1nc(-c2cc(C(=O)NCCS)cs2)cs1 | 31% | 17.3% | 21.2% | 18.3% | 24.6% | 16.6% | 55.4% | 46% | 18.3% | 17.2% | 16.2% | 27.3%
O=C(NCCS)c1ccc(-c2ccc3c(c2)OCCO3)s1 | 32.5% | 28.4% | 15.6% | 11.3% | 19% | 10.4% | 79.6% | 28.6% | 17% | 9.7% | 2.6% | 17.3%
O=C(NCCS)c1cc(-c2cccc(C(F)(F)F)c2)ccn1 | 13.9% | 10.8% | 10.7% | 8.4% | 9.1% | 8% | 40.8% | 19.2% | 10.9% | 9.1% | 5.6% | 10.1%
O=C(NCCS)c1cnc(Oc2ccccc2)cn1 | 14% | 8.2% | 12.1% | 11.2% | 14.9% | 28.7% | 21.2% | 24.4% | 8.1% | 11.7% | 11.1% | 18.8%
CC(C)N(Cc1cccs1)C(=O)CCS |  | 23.3% | 50.6% | 37% | 29.4% | 37.9% | 50.6% |  | 35.7% | 34.8% | 32.6% | 61.9%
O=C(NCCS)c1sc(-c2ccccc2)nc1C(F)F | 19.9% | 13.6% | 14.8% | 10.7% | 11.9% | 11.6% | 38.8% | 23.2% | 12.4% | 17.6% | 7.6% | 14.2%
Cc1oc(-c2ccccc2)nc1CC(=O)NCCS | 45.1% | 19.1% | 28.9% | 26.3% | 57.6% | 37.1% | 43.5% | 36.5% | 16.8% | 29.3% | 22.7% | 38.6%
O=C(CN1CC(C(F)(F)F)CCC1=O)NCCS (stereo not drawn) | 27% | 11.2% | 30.8% | 22.6% | 48.9% | 29.3% | 18.6% | 31.7% | 25.6% | 34.5% | 35.2% | 37.7%
CC1(C2CC2)NC(=O)N(c2cccc(NC(=O)CCS)c2)C1=O (stereo not drawn) |  | 13.9% | 31.8% | 26% | 31.5% | 26.5% | 39.2% |  | 19.2% | 24.2% | 27.9% | 48.8%
CN(C)C(=O)CCn1ccc(NC(=O)CCS)n1 |  | 9.3% | 28% | 36.8% | 29.1% | 34.7% | 16% |  | 34.7% | 29.8% | 28.4% | 50.3%
Cc1nc(C(=O)NCCS)c(C)o1 | 44.7% | 25.9% | 31.9% | 29.5% | 34.9% | 28.1% | 27.6% | 39.6% | 31.3% | 35.4% | 39.1% | 35.9%
CN(C)Cc1nc(C2(NC(=O)CCS)CCCC2)no1 |  | 6.4% | 34% | 26.9% | 29.1% | 32.8% | 9.9% |  | 14% | 28.8% | 27.2% | 46.1%
